Assay results from publication PMC12266122.
These are yes or no findings as the source states them, for the method shown. Binding seen in cells or lysates may run through a third protein. Some entries that bind do so weakly or less than the wild type. Sequences can lack the tags named with a protein.

Amino acid sequences for entries named in this document (tags omitted). A change or cut given only in a name is not applied to a line headed by its entry.
UniProt Q9UHY1: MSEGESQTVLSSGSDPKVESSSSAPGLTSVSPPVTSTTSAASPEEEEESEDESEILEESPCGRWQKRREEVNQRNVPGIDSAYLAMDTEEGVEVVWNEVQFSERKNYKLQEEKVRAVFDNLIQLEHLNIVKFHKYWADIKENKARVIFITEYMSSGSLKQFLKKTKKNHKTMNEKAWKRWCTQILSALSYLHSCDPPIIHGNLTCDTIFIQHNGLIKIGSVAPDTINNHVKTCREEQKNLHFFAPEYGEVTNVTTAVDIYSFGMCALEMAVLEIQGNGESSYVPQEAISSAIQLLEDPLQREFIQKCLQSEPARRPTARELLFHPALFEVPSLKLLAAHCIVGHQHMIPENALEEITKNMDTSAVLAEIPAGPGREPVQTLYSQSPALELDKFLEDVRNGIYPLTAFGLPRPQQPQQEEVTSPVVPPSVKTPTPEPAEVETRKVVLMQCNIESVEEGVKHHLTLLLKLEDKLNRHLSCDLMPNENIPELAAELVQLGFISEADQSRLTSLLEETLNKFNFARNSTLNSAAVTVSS

Assays:
[1] = biological target: full-length NRBP2, differently tagged versions (fig. S8C) (human) (UniProt Q9NSY0); test: co-IP; co-expression of differently tagged versions of full-length NRBP1 and NRBP2; co-immunoprecipitation (fig. S8C)
[2] = biological target: full-length NRBP1, differently tagged versions (fig. S8C) (human) (UniProt Q9UHY1); test: as above

B1: full-length NRBP2, differently tagged versions (fig. S8C) (protein, UniProt Q9NSY0 1-501)
chain: MAAPEPAPRRAREREREREDESEDESDILEESPCGRWQKRREQVNQGNMPGLQSTFLAMDTEEGVEVVWNELHFGDRKAFAAHEEKIQTVFEQLVLVDHPNIVKLHKYWLDTSEACARVIFITEYVSSGSLKQFLKKTKKNHKAMNARAWKRWCTQILSALSFLHACSPPIIHGNLTSDTIFIQHNGLIKIGSVWHRIFSNALPDDLRSPIRAEREELRNLHFFPPEYGEVADGTAVDIFSFGMCALEMAVLEIQTNGDTRVTEEAIARARHSLSDPNMREFILCCLARDPARRPSAHSLLFHRVLFEVHSLKLLAAHCFIQHQYLMPENVVEEKTKAMDLHAVLAELPRPRRPPLQWRYSEVSFMELDKFLEDVRNGIYPLMNFAATRPLGLPRVLAPPPEEVQKAKTPTPEPFDSETRKVIQMQCNLERSEDKARWHLTLLLVLEDRLHRQLTYDLLPTDSAQDLASELVHYGFLHEDDRMKLAAFLESTFLKYRGTQA
[1]
  binding: binds
[2]
  binding: binds
